The antibiotic and cytotoxicity screens of Wong et al. (2023)
The list shows a part of the results.

The molecules below were run on S. aureus RN4220 (assay: growth inhibition call (relative growth <= 0.2)). Settings: 50 µM.

Structure (SMILES) | growth inhibition call
C[C@@H]1CCCCO[C@H](CN(C)C(=O)Cc2ccccc2)[C@@H](C)CN([C@@H](C)CO)C(=O)c2cc(NC(=O)CCC(F)(F)F)ccc2O1 | inactive
C[C@H]1CN([C@@H](C)CO)C(=O)c2cccc(NS(=O)(=O)c3ccc(Cl)cc3)c2O[C@H]1CN(C)Cc1ccc(Cl)c(Cl)c1 | inactive
C[C@@H]1CCCCO[C@H](CN(C)C(=O)NC2CCCCC2)[C@@H](C)CN([C@H](C)CO)C(=O)c2cc(NS(=O)(=O)c3ccc(Cl)cc3)ccc2O1 | inactive
Cc1noc(C)c1S(=O)(=O)N(C)C[C@H]1Oc2ccc(NC(=O)CCN3CCOCC3)cc2C(=O)N([C@@H](C)CO)C[C@H]1C | inactive
C[C@@H]1CN([C@H](C)CO[Si](C)(C)C(C)(C)C)C(=O)c2cc(NC(=O)Nc3ccccc3)ccc2O[C@@H](C)CCCCO[C@H]1CN(C)S(=O)(=O)c1ccc(F)cc1 | inactive
C[C@@H]1CCCCO[C@@H](CN(C)C(=O)Nc2ccc3c(c2)OCO3)[C@@H](C)CN([C@@H](C)CO)C(=O)c2cc(NC(=O)CCC(F)(F)F)ccc2O1 | inactive
C[C@@H]1CN([C@@H](C)CO)C(=O)c2cc(NC(=O)c3ccncc3)ccc2O[C@@H](C)CCCCO[C@H]1CN(C)C(=O)Nc1ccc2c(c1)OCO2 | inactive
COc1cccc(S(=O)(=O)Nc2ccc3c(c2)[C@@H]2C[C@@H](CC(=O)NCCc4ccccc4)O[C@H](CO)[C@@H]2O3)c1 | inactive
COCCNC(=O)C[C@@H]1C[C@@H]2c3cc(NC(=O)COC)ccc3O[C@@H]2[C@@H](CO)O1 | inactive
CN(C)CCCNC(=O)[C@@H]1c2ccccc2C(=O)N(Cc2cc(C(F)(F)F)cc(C(F)(F)F)c2)[C@H]1c1ccc(CO)cc1 | inactive
CC(CN(C)C)CN1c2ccccc2CCc2ccccc21.O=C(O)C=CC(=O)O (stereo not given) | inactive
COc1cccc(-c2ccc3c(c2)O[C@@H](CN(C)C(=O)C2CCOCC2)[C@@H](C)CN([C@H](C)CO)S3(=O)=O)c1 | inactive
Cc1cc(NC(=O)C2=C(O)c3ccccc3S(=O)(=O)N2C)no1 | inactive
C[C@@H]1CN([C@@H](C)CO)C(=O)c2cc(NC(=O)c3ccncc3)ccc2O[C@@H]1CN(C)S(=O)(=O)c1cn(C)cn1 | inactive
NCc1ccccc1CN1CCOCC1 | inactive
Cc1ccc(S(=O)(=O)Nc2ccc3c(c2)C(=O)N([C@@H](C)CO)C[C@@H](C)[C@H](CN(C)S(=O)(=O)c2ccc(Cl)cc2)OCCCC[C@@H](C)O3)cc1 | inactive
Cc1noc(C)c1NC(=O)N(C)C[C@@H]1Oc2ccc(NS(=O)(=O)c3cccs3)cc2CC(=O)N([C@@H](C)CO)C[C@@H]1C | inactive
C[C@H](CO)N1C[C@H](C)[C@H](CN(C)Cc2ccc(C(=O)O)cc2)Oc2ccc(NC(=O)CCN3CCOCC3)cc2C1=O | inactive
COc1ccc(CN(C)C[C@H]2Oc3c(NC(=O)c4ccc(-c5nccs5)cc4)cccc3C(=O)N([C@H](C)CO)C[C@@H]2C)cc1 | inactive
CN1CCN(c2c(F)cc3c(=O)c(C(=O)O)cn4c3c2SCC4)CC1 | active
C[C@H](CO)N1C[C@H](C)[C@@H](CN(C)C(=O)Cc2ccccc2)OCCCC[C@H](C)Oc2ccc(NC(=O)CCC(F)(F)F)cc2C1=O | inactive
Cc1ccc(-n2nnc(C(N)=O)c2C)cc1 | inactive
CC(=O)OCC(=O)C1(O)CCC2C3CCC4=CC(=O)C=CC4(C)C3C(O)CC21C (stereo not given) | inactive
Cc1cc(C(=O)Nc2cccc3c2O[C@H](CN(C)C(=O)NC(C)C)[C@@H](C)CN([C@H](C)CO)C3=O)n(C)n1 | inactive
CN1CCN(C(=O)Cn2cc(-c3ccc(C(=O)NO)cc3)nn2)CC1 | inactive
Cc1ccc(S(=O)(=O)N(C)C[C@H]2OCCCC[C@H](C)Oc3ccc(NS(C)(=O)=O)cc3C(=O)N([C@H](C)CO)C[C@H]2C)cc1 | inactive
COc1ccc(NC(=O)N(C)C[C@H]2Oc3ncc(C#CCN(C)C)cc3C(=O)N([C@H](C)CO)C[C@H]2C)cc1 | inactive
C=CCC(N)(CC=C)c1ccc(C)cc1 | inactive
C[C@@H]1CCCCO[C@H](CN(C)S(=O)(=O)c2ccc(F)cc2)[C@@H](C)CN([C@@H](C)CO)C(=O)c2cc(NC(=O)Nc3ccc(C(F)(F)F)cc3)ccc2O1 | inactive
COC(=O)c1c(CC[C@@H](CO)NC(=O)N[C@@H](C)Cn2cc(C3(O)CCCC3)nn2)oc(C(C)=O)c1C(=O)OC | inactive
